# About 2,200 (0.71%) of roughly 310,000 compounds showed an effect of 50% or more. Effects have a minus sign here. Some of the results follow.
# Molecular target: human ether-à-go-go-related gene (hERG) potassium channel (human, UniProt Q12809)
# Experiment: primary screen, population patch clamp on CHO cells stably expressing hERG
# Chain of human ether-à-go-go-related gene (hERG) potassium channel (Q12809 whole entry, looked up): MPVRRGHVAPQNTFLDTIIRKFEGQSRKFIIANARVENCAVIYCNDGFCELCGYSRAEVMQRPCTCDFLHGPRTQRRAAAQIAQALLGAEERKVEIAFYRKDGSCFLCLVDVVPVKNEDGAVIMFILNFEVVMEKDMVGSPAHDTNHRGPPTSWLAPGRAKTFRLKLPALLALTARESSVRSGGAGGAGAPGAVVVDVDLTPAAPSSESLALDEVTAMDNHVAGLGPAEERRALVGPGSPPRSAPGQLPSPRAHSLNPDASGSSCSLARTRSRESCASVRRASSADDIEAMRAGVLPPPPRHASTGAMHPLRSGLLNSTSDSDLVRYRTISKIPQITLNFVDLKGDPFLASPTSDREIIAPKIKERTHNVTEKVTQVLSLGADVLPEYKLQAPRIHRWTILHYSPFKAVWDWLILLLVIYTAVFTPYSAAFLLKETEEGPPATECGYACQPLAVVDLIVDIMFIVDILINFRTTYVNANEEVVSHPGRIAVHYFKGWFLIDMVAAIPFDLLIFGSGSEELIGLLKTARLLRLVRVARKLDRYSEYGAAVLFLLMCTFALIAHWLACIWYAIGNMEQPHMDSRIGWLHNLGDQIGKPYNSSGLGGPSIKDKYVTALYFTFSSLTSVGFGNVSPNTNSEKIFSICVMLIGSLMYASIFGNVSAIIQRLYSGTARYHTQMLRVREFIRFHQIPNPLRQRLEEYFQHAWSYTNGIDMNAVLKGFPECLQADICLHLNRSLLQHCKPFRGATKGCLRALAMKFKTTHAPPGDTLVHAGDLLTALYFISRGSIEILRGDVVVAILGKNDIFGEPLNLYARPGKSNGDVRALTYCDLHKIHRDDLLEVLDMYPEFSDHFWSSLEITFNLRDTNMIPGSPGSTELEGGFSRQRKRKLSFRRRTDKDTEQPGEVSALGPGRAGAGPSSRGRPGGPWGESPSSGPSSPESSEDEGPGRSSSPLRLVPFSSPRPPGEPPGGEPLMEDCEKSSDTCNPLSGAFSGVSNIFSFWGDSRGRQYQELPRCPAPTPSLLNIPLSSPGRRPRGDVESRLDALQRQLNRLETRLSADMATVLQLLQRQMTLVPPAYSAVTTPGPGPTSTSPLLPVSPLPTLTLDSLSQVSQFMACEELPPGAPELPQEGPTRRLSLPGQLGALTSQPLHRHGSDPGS
row,SMILES,"hERG current change (%, negative = inhibition) at 1uM"
1,Cc1n[nH]c(=O)c2c1nnn2Cc1ccccc1Cl,13%
2,Cc1onc(-c2ccccc2)c1C(=O)N1CCc2ccccc21,20.3%
3,O=C(Cn1c(=O)n(-c2ccccc2)c(=O)c2oc3ccccc3c21)Nc1ccccc1,12.1%
4,CCOc1ccccc1N(CC(=O)Nc1cccc(OC)c1)S(=O)(=O)c1ccccc1,14.7%
5,O=C(O)c1cccc(Nc2nc(-c3ccc([N+](=O)[O-])cc3)nc3ccccc23)c1,9.79%
6,CN(Cc1ccccc1)C(=O)c1ccc(NC2=NC3CS(=O)(=O)CC3S2)cc1 (stereo not shown),-3.47%
7,CNc1ccn(C2CCCO2)c(=O)n1 (stereo not shown),14.8%
8,Cc1ccc(C(=O)N2CCN(c3ccc(NC(=O)c4cccnc4Cl)cc3)CC2)cc1,1.36%
9,O=C(Cc1ccc(Cl)cc1)N/N=C/c1cccc(O)c1,-4.42%
10,Cc1ccc(C(=O)/C=C\C(=O)c2ccc(C)cc2)cc1,22.9%
11,Cc1ccc2cc(C(c3nnnn3C3CCCC3)N3CCOCC3)c(=O)[nH]c2c1C (stereo not shown),-3.3%
12,Cc1cccc(Nc2nc(-c3sc(C)nc3C)cs2)c1,11.9%
13,CC(=O)c1cccc(OCc2cc(C(=O)N(C)C(C)c3ccccn3)no2)c1 (stereo not shown),15.2%
14,Cc1[nH]c2ccccc2c1SCc1ccccc1,-4.68%
15,CC(C)c1ccc(C2C(C(=O)c3ccco3)=C(O)C(=O)N2CCN2CCOCC2)cc1 (stereo not shown),13.3%
16,CCOc1ccc2nc(N(CCN(CC)CC)C(=O)c3cccc([N+](=O)[O-])c3)sc2c1.Cl,-0.368%
17,COc1ccc(-c2c(-c3ccc(O)cc3O)n[nH]c2C)cc1OC,-7.81%
18,CCOC(=O)c1c(C)[nH]c(C)c1C(=O)COc1ncnc2cc([N+](=O)[O-])ccc12,3.53%
19,CCCCCCCCSc1nnc(CSc2nc3nc(C)cc(C)n3n2)o1,-3.12%
20,CCS(=O)(=O)N1CCCC(C(=O)NCc2ccccc2Cl)C1 (stereo not shown),1.54%
21,Cc1ccc2c(c1)N(CC(=O)N(Cc1ccccn1)Cc1ccco1)C(=O)C(C(C)C)O2 (stereo not shown),1.3%
22,CC(C)NC(=O)c1onc(CSc2ccc(F)c(F)c2)c1C(=O)O,10.2%
23,COc1ccc2c(c1OC)C(=O)OC2,14.3%
24,COc1ccc(CCNC(=O)c2nnn(CC(=O)Nc3c(C)cc(C)cc3C)c2N)cc1OC,8.6%
25,CC1(C)CC(=O)c2c(O)cc(OCC(=O)Nc3ccc(S(N)(=O)=O)cc3)cc2O1,6.76%
26,O=C(CCc1nnc(CCCCc2ccccc2)o1)NC1CCCC1,9.51%
27,COc1ccc(CCNC(=O)Nc2ccc3c(c2)OCO3)cc1OC,14.7%
28,Cc1nc(Cc2nnc(SCC(=O)N3CCN(c4ccc(F)cc4)CC3)o2)cs1,-4.72%

row,SMILES,"hERG current change (%, negative = inhibition) at 1uM"
1,C/C(=N\NC(=O)CCCC(=O)O)c1c(-c2ccccc2)c2cc(Cl)ccc2[nH]c1=O,18.9%
2,CC(=O)Nc1c(O)nc(SCC(=O)Nc2nnc(SCc3ccccc3)s2)[nH]c1=O,14.8%
3,CCOC(=O)c1ccc(N2C(=O)CC(N3CCC(C(=O)OCC)CC3)C2=O)cc1 (stereo not shown),1.92%
4,COC(=O)c1ccc(/C=N\NC(=O)c2ccc(C)cc2Cl)cc1,13.7%
5,O=C(Cc1ccc(-n2c(=O)c3ccccc3n(Cc3ccc(F)cc3)c2=O)cc1)NCC1CCCO1 (stereo not shown),5.44%
6,CC(C(=O)Nc1ccc(S(=O)(=O)N2CCCC2)cc1)N1CCc2ccccc2C1 (stereo not shown),6.57%
7,CC(C)Oc1ccc(CCC(=O)N/N=C/c2ccncc2)cc1,13.6%
8,CCOC(=O)c1c(C)nc2sc3c(=O)n(-c4ccc(C(C)=O)cc4)cnc3c2c1-c1ccc(Cl)cc1,13.9%
9,CCN(C(=O)CN1CCc2ccccc21)c1c(N)n(Cc2ccccc2)c(=O)[nH]c1=O,6.71%
10,CC(C)(C)S(=O)(=O)c1ccsc1C(=O)O,6.16%
11,O=C(COC(=O)c1ccccc1NS(=O)(=O)c1cccs1)NCC12CC3CC(CC(C3)C1)C2,12.2%
12,COC(=O)C1=C(C)N(CCCC(=O)O)C(=O)NC1c1cccs1 (stereo not shown),14.4%
13,CCOC(=O)N/N=C/c1cn(Cc2ccc(Cl)cc2)c2ccccc12,25.7%
14,COC(=O)c1cc(N2CCN(C)CC2)nc2ccccc12.Cl,10.2%
15,O=C(CCC(=O)c1ccccc1)Nc1ccc(C(=O)O)cc1,13.7%
16,COc1ccc(/C=N/NC(=O)C(=O)N2CCCC2)cc1,13.9%
17,COc1ccc2nc3ccccc3nc2c1,4.47%
18,CCOC(=O)CN(Cc1ccccc1)S(=O)(=O)c1ccc(NC(C)=O)cc1,-10.7%
19,CCCCn1c(=O)n(CC(=O)Nc2ccc(C)c(Cl)c2)c(=O)c2c1ncn2Cc1ccco1,-2.76%
20,Cc1ccc(S(=O)(=O)Nc2ccc(C(=O)N3CCOCC3)cc2)cc1,11.9%
21,CCOC(=O)c1c(C)[nH]c(C)c1S(=O)(=O)N(C)CC(=O)Nc1ccccc1F,12.3%
22,COC(=O)Cc1c(C)[nH]n(-c2cc(Cl)cc(Cl)c2)c1=O,10.8%
23,CCN(CC)c1ccc(CNCCc2ccc(F)cc2)cc1.Cl,-10.4%
24,O=c1c([N+](=O)[O-])c(O)c2ccccc2n1Cc1ccccc1,14.5%
25,C/C(=N/NC(=O)c1ccc(C)nc1)c1ccc2c(c1)CCCC2,-4.02%
26,COc1ccc(C2CC(=O)C(C=NCCN3CCOCC3)=C(O)C2)cc1 (stereo not shown),11%
27,COC(=O)C1C2C=CC(C3CC23)C1C(=O)OCC(=O)c1ccccc1 (stereo not shown),11.7%
